# The other results are listed elsewhere or left out.
# B1: Gal 4 (Mus musculus), P56470 (protein)
# chain: MAYVPAPGYQPTYNPTLPYYQPIPGGLNVGMSVYIQGVASEHMKRFFVNFVVGQDPGSDVAFHFNPRFDGWDKVVFNTLQGGKWGSEERKRSMPFKKGAAFELVFIVLAEHYKVVVNGNPFYEYGHRLPLQMVTHLQVDGDLQLQSINFIGGQPLRPQGPPMMPPYPGPGHCHQQLNSLPTMEGPPTFNPPVPYFGRLQGGLTARRTIIIKGYVPPTGKSFAINFKVGSSGDIALHINPRMGNGTVVRNSLLNGSWGSEEKKITHNPFGPGQFFDLSIRCGLDRFKVYANGQHLFDFAHRLSAFQRVDTLEIQGDVTLSYVQI
# Tests used:
# Assay in all cases: glycan array binding signal (z-score within array); higher = stronger binding
# Details in all cases: glycan notation: IUPAC condensed, linker removed
# [1] = molecular target: Gal3S(b1-4)[Fuc(a1-3)]Glc6S
# Summary of the method: (§1)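 Arrays were curated from the Consortium for Functional Glycomics database, 3228 in total, and kept only where the protein sequence was available. Binding is expressed as a within-array Z-score. This score was averaged across arrays of the same protein sequence at different concentrations or buffers and across linkers, and negative values can be read as non-binding.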
# [2] = molecular target: Gal3S(b1-4)[Fuc(a1-3)]GlcNAc
# Summary of the method: as §1
# [3] = molecular target: Gal3S(b1-4)[Fuc(a1-3)]GlcNAc6S
# Summary of the method: as §1
# [4] = molecular target: Gal3S4S(b1-4)GlcNAc
# Summary of the method: as §1
# [5] = molecular target: Gal3S6S(b1-4)GlcNAc
# Summary of the method: as §1
# [6] = molecular target: Gal3S6S(b1-4)GlcNAc6S
# Summary of the method: as §1
# [7] = molecular target: Gal4S(b1-4)GlcNAc
# Summary of the method: as §1
# [8] = molecular target: Gal4S6S(b1-4)GlcNAc
# Summary of the method: as §1
# [9] = molecular target: Gal6P(b1-4)GlcNAc
# Summary of the method: as §1
# [10] = molecular target: Gal6S(b1-3)GlcNAc
# Summary of the method: as §1
# [11] = molecular target: Gal6S(b1-3)GlcNAc6S
# Summary of the method: as §1
# [12] = molecular target: Gal6S(b1-4)Glc
# Summary of the method: as §1
# [13] = molecular target: Gal6S(b1-4)Glc6S
# Summary of the method: as §1
# [14] = molecular target: Gal6S(b1-4)GlcNAc
# Summary of the method: as §1
# [15] = molecular target: Gal6S(b1-4)GlcNAc6S
# Summary of the method: as §1
# [16] = molecular target: GalNAc(a1-3)Gal
# Summary of the method: as §1
# [17] = molecular target: GalNAc(a1-3)GalNAc
# Summary of the method: as §1
# [18] = molecular target: GalNAc(a1-3)GalNAc(a1-3)Gal(a1-4)Gal(b1-4)GlcNAc
# Summary of the method: as §1
# [19] = molecular target: GalNAc(a1-3)GalNAc(b1-3)Gal(a1-4)Gal(b1-4)Glc
# Summary of the method: as §1
# [20] = molecular target: GalNAc(b1-3)Gal
# Summary of the method: as §1
# [21] = molecular target: GalNAc(b1-3)Gal(a1-4)Gal(b1-4)GlcNAc
# Summary of the method: as §1
# [22] = molecular target: GalNAc(b1-3)Gal(a1-4)Gal(b1-4)GlcNAc(b1-3)Gal(b1-4)Glc
# Summary of the method: as §1
# [23] = molecular target: GalNAc(b1-3)Gal(a1-6)Gal(b1-4)Glc
# Summary of the method: as §1
# [24] = molecular target: GalNAc(b1-3)GalNAc
# Summary of the method: as §1
# [25] = molecular target: GalNAc(b1-3)GlcNAc
# Summary of the method: as §1
# [26] = molecular target: GalNAc(b1-4)Gal(b1-4)Glc
# Summary of the method: as §1
# [27] = molecular target: GalNAc(b1-4)GlcNAc
# Summary of the method: as §1
# [28] = molecular target: GalNAc(b1-4)GlcNAc(b1-2)Man
# Summary of the method: as §1
# [29] = molecular target: GalNAc(b1-4)GlcNAc(b1-2)Man(a1-3)[GalNAc(b1-4)GlcNAc(b1-2)Man(a1-6)]Man(b1-4)GlcNAc(b1-4)GlcNAc
# Summary of the method: as §1
# [30] = molecular target: GalNAc(b1-4)GlcNAc(b1-3)GalNAc(b1-4)GlcNAc
# Summary of the method: as §1
# [31] = molecular target: GalNAc(b1-4)GlcNAc6S
# Summary of the method: as §1
# [32] = molecular target: GalNAc(b1-6)GalNAc
# Summary of the method: as §1
# [33] = molecular target: GalNAc3S(b1-4)GlcNAc
# Summary of the method: as §1
# [34] = molecular target: GalNAc3S(b1-4)GlcNAc3S
# Summary of the method: as §1
# [35] = molecular target: GalNAc3S(b1-4)[Fuc(a1-3)]GlcNAc
# Summary of the method: as §1
# [36] = molecular target: GalNAc4S6S(b1-4)GlcNAc
# Summary of the method: as §1
# [37] = molecular target: GalNAc6S(b1-4)GlcNAc
# Summary of the method: as §1
# [38] = molecular target: Glc(a1-4)Glc
# Summary of the method: as §1
# [39] = molecular target: Glc(a1-4)Glc(a1-4)Glc(a1-4)Glc
# Summary of the method: as §1
# [40] = molecular target: Glc(a1-6)Glc(a1-6)Glc
# Summary of the method: as §1
# [41] = molecular target: Glc(a1-6)Glc(a1-6)Glc(a1-6)Glc
# Summary of the method: as §1
# [42] = molecular target: Glc(b1-4)Glc
# Summary of the method: as §1
# [43] = molecular target: Glc(b1-6)Glc
# Summary of the method: as §1
# [44] = molecular target: GlcA(b1-3)Gal
# Summary of the method: as §1
# [45] = molecular target: GlcA(b1-3)GlcNAc
# Summary of the method: as §1
binder,measurement,setting,value
B1,glycan array binding signal (z-score),[1],-0.18
same,glycan array binding signal (z-score),[2],-0.18
same,glycan array binding signal (z-score),[3],1.81
same,glycan array binding signal (z-score),[4],-0.238
same,glycan array binding signal (z-score),[5],-0.191
same,glycan array binding signal (z-score),[6],-0.184
same,glycan array binding signal (z-score),[7],-0.209
same,glycan array binding signal (z-score),[8],-0.236
same,glycan array binding signal (z-score),[9],-0.286
same,glycan array binding signal (z-score),[10],-0.247
same,glycan array binding signal (z-score),[11],-0.2
same,glycan array binding signal (z-score),[12],-0.21
same,glycan array binding signal (z-score),[13],-0.179
same,glycan array binding signal (z-score),[14],-0.223
same,glycan array binding signal (z-score),[15],-0.215
same,glycan array binding signal (z-score),[16],-0.214
same,glycan array binding signal (z-score),[17],-0.241
same,glycan array binding signal (z-score),[18],0.119
same,glycan array binding signal (z-score),[19],0.156
same,glycan array binding signal (z-score),[20],0.443
same,glycan array binding signal (z-score),[21],-0.195
same,glycan array binding signal (z-score),[22],0.57
same,glycan array binding signal (z-score),[23],-0.222
same,glycan array binding signal (z-score),[24],-0.243
same,glycan array binding signal (z-score),[25],-0.272
same,glycan array binding signal (z-score),[26],-0.31
same,glycan array binding signal (z-score),[27],-0.21
same,glycan array binding signal (z-score),[28],-0.298
same,glycan array binding signal (z-score),[29],-0.172
same,glycan array binding signal (z-score),[30],-0.278
same,glycan array binding signal (z-score),[31],0.496
same,glycan array binding signal (z-score),[32],-0.226
same,glycan array binding signal (z-score),[33],0.169
same,glycan array binding signal (z-score),[34],-0.325
same,glycan array binding signal (z-score),[35],-0.304
same,glycan array binding signal (z-score),[36],-0.265
same,glycan array binding signal (z-score),[37],-0.326
same,glycan array binding signal (z-score),[38],-0.244
same,glycan array binding signal (z-score),[39],-0.317
same,glycan array binding signal (z-score),[40],-0.251
same,glycan array binding signal (z-score),[41],-0.275
same,glycan array binding signal (z-score),[42],-0.232
same,glycan array binding signal (z-score),[43],-0.23
same,glycan array binding signal (z-score),[44],-0.24
same,glycan array binding signal (z-score),[45],-0.039

# Reference: the supplement of paper PMC8728848
